Measured values reported in the supplement of paper PMC10441789.
The other results are listed elsewhere or left out. Antibody binding of pooled human sera (four to six donors per pool; dilution not stated) to peptides of the Trypanosoma cruzi antigen TSSA on microarrays. Quantile-normalised fluorescence in arbitrary units, mean of duplicate arrays; higher = more binding. No active / inactive call. The uninfected pools are read here as the healthy donors of the same country. The strongest signals lie near the top of the scale (about 60,000).

Legend:
Experiment in all cases: antibody binding signal (normalised fluorescence) (arbitrary fluorescence units); higher = stronger serum antibody binding to peptide
[1] = system: pooled sera of chronic Chagas disease patients, Argentina
Procedure: (§1)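 Microarray of 15-residue peptides over residues 30-55 of Trypanosoma cruzi TSSAII, each with 1 to 10 substitutions at naturally variable positions, probed with one serum pool per country.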

[2] = system: pooled sera of chronic Chagas disease patients, Bolivia
Procedure: as §1

[3] = system: pooled sera of chronic Chagas disease patients, Brazil
Procedure: as §1

[4] = system: pooled sera of chronic Chagas disease patients, Colombia
Procedure: as §1

[5] = system: pooled sera of chronic Chagas disease patients, Mexico
Procedure: as §1

[6] = system: pooled sera of chronic Chagas disease patients, USA
Procedure: as §1

[7] = system: pooled sera of uninfected people, Argentina
Procedure: as §1

[8] = system: pooled sera of uninfected people, Bolivia
Procedure: as §1

[9] = system: pooled sera of uninfected people, Brazil
Procedure: as §1

[10] = system: pooled sera of uninfected people, Colombia
Procedure: as §1

[11] = system: pooled sera of uninfected people, Mexico
Procedure: as §1

[12] = system: pooled sera of uninfected people, USA
Procedure: as §1

Sequence | antibody binding signal [1] | antibody binding signal [2] | antibody binding signal [3] | antibody binding signal [4] | antibody binding signal [5] | antibody binding signal [6] | antibody binding signal [7] | antibody binding signal [8] | antibody binding signal [9] | antibody binding signal [10] | antibody binding signal [11] | antibody binding signal [12]
TSSTPPSGKEKKTAA | 16200 | 311 | 269 | 531 | 17900 | 562 | 507 | 469 | 372 | 217 | 86.2 | 235
STPPSGTEKKPAAGE | 47300 | 40900 | 44200 | 356 | 24200 | 12500 | 1420 | 508 | 911 | 208 | 206 | 241
TDNKTATGGTPSPSG | 452 | 1020 | 787 | 590 | 359 | 564 | 231 | 550 | 437 | 494 | 183 | 201
KEKKPAAGEAPSQSG | 287 | 3790 | 8050 | 167 | 222 | 10000 | 109 | 80.4 | 105 | 91.4 | 89.6 | 343
TDKKTAAGGTPSQPG | 1700 | 277 | 364 | 11600 | 415 | 1680 | 407 | 100 | 859 | 391 | 1040 | 182
PSGKEKKAAAGETPS | 7190 | 2790 | 8090 | 10100 | 12200 | 7600 | 444 | 408 | 91.2 | 384 | 109 | 150
SSTPPSGKEKKAATG | 12300 | 188 | 233 | 317 | 22000 | 631 | 279 | 415 | 109 | 283 | 80.1 | 105
GTDNKAAAGEAPSPP | 452 | 317 | 33500 | 226 | 192 | 13500 | 112 | 642 | 1360 | 81.7 | 129 | 88.5
TISTPPSGKEKKPAT | 18700 | 221 | 373 | 270 | 35600 | 399 | 660 | 370 | 195 | 329 | 83.9 | 241
PPSGKDNKTAAGEAP | 769 | 1010 | 2630 | 1980 | 4320 | 5130 | 498 | 792 | 292 | 407 | 198 | 258
GTEKKAATGETPSPP | 3200 | 2350 | 12300 | 1550 | 3360 | 13000 | 527 | 700 | 239 | 679 | 195 | 1120
SSTPPSGTEKKTAAG | 36800 | 5580 | 27600 | 369 | 7510 | 4400 | 891 | 321 | 128 | 134 | 121 | 177
GTDNKPATGEAPSPS | 46900 | 52500 | 52600 | 1240 | 268 | 39700 | 896 | 714 | 727 | 172 | 371 | 168
NKTAAGGAPSPPGAS | 269 | 275 | 2280 | 6190 | 977 | 1070 | 837 | 1450 | 454 | 619 | 257 | 1440
TENKTATGEAPSPSG | 22400 | 31400 | 18800 | 107 | 144 | 20800 | 121 | 118 | 205 | 177 | 117 | 129
SGTDNKAATGETPSQ | 3860 | 5480 | 42800 | 210 | 300 | 12600 | 106 | 637 | 1300 | 122 | 146 | 162
GKEKKPAAGGTPSPP | 1360 | 240 | 228 | 2420 | 968 | 1450 | 96.9 | 85.5 | 449 | 134 | 75.1 | 288
STPPSGKEKKPATGE | 30300 | 3030 | 14900 | 314 | 42900 | 10400 | 1030 | 1470 | 169 | 674 | 134 | 432
GKENKAAAGGAPSQS | 1770 | 1170 | 6500 | 6240 | 4890 | 9970 | 425 | 87.2 | 137 | 111 | 114 | 133

Sequence | antibody binding signal [1] | antibody binding signal [2] | antibody binding signal [3] | antibody binding signal [4] | antibody binding signal [5] | antibody binding signal [6] | antibody binding signal [7] | antibody binding signal [8] | antibody binding signal [9] | antibody binding signal [10] | antibody binding signal [11] | antibody binding signal [12]
PSGTENKTATGGTPS | 47300 | 26500 | 43700 | 2290 | 2890 | 9250 | 1280 | 634 | 597 | 382 | 825 | 424
GKDKKTATGGTPSQS | 484 | 216 | 287 | 1270 | 774 | 1480 | 279 | 96.8 | 106 | 114 | 122 | 108
GKDNKTATGGTPSQP | 1620 | 350 | 1060 | 5190 | 4500 | 3070 | 390 | 138 | 147 | 182 | 525 | 136
KPATGETPSPSGASS | 29600 | 27500 | 27300 | 232 | 3270 | 21700 | 251 | 620 | 331 | 156 | 1580 | 720
GTEKKPATGETPSQP | 33400 | 18900 | 41500 | 1120 | 1640 | 23000 | 261 | 1140 | 1740 | 196 | 1840 | 697
TPPSGTENKAATGGA | 49700 | 43400 | 48800 | 405 | 5030 | 19400 | 2970 | 608 | 449 | 733 | 318 | 591
KENKPAAGGTPSQPG | 270 | 238 | 2680 | 1240 | 447 | 1370 | 335 | 237 | 444 | 217 | 255 | 187
KDKKAAAGEAPSPPG | 204 | 207 | 669 | 199 | 188 | 7530 | 157 | 72.8 | 86 | 96 | 77.8 | 88.7
TISTPPSGTDNKTAT | 33000 | 42900 | 48400 | 1100 | 11400 | 15600 | 854 | 656 | 1700 | 196 | 252 | 291
SGTDKKAATGGAPSP | 2300 | 224 | 3240 | 4390 | 2130 | 1750 | 435 | 685 | 128 | 760 | 445 | 195
GKENKPAAGEAPSPS | 6370 | 2480 | 23500 | 7770 | 8380 | 20400 | 619 | 310 | 195 | 131 | 279 | 99.7
PSGKDNKAATGEAPS | 25100 | 17600 | 29300 | 2130 | 2720 | 24000 | 308 | 389 | 198 | 175 | 100 | 127
TDNKAAAGGAPSPPG | 260 | 332 | 366 | 2760 | 265 | 742 | 321 | 287 | 222 | 221 | 120 | 207
ISTPPSGKEKKTATG | 13300 | 190 | 280 | 397 | 19000 | 799 | 290 | 268 | 104 | 204 | 109 | 126
KDKKTAAGGAPSPPG | 162 | 189 | 317 | 2400 | 219 | 379 | 122 | 102 | 100 | 164 | 93.3 | 127
DNKAATGETPSQSGA | 3080 | 4600 | 26200 | 85.2 | 127 | 11300 | 101 | 216 | 247 | 136 | 218 | 111
GTEKKTATGGTPSPS | 1010 | 547 | 725 | 4430 | 1160 | 1920 | 249 | 594 | 348 | 772 | 186 | 144
KKAAAGETPSQSGAS | 212 | 749 | 2600 | 194 | 120 | 563 | 228 | 299 | 78.4 | 160 | 122 | 255
